Results from PubChem BioAssay AID1865 (National Center for Advancing Translational Sciences (NCATS), 2009).
Screen size: about 280,000 compounds; about 540 (0.19%) were called active. About 2% were inconclusive and are not listed. Calls follow the shape of the dose curve; as a rule, active = well fitted activation curve with a large enough effect; inconclusive = small, poorly fitted or top-dose-only effect; inactive = flat fitted curve, though single readings scatter. Only a part is listed here, and it is no random draw.

assay: Quantitative High-Throughput Screen for Regulators of Epigenetic Control; settings: murine LDR cells, GFP reporter derepression, 30 h; series mostly up to 53.9 µM; GFP activation: at the top concentration; also: nearly all actives have a fitted effect of over 60% in size; as to GFP activation: % of control where 0% means no effect
In short: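 Derepression of a silenced CMV-GFP reporter in murine LDR cells is scored by enumerating GFP-positive cells with a laser-scanning microplate cytometer after 30 hours of treatment at 37 C.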
Potency is read from the fitted curve at half-maximal effect.

SMILES | Potency | GFP activation
CCN(CC)c1ccc2cc(-c3nc4ccccc4n3C)c(=O)oc2c1 | active: 7.08 µM | 
O=C(c1ccccc1)c1ncc(C(F)(F)F)cc1Cl |  | inactive: 0%
N#C/C(=C\C=C\c1ccccc1)C(=O)Nc1ccccc1 |  | inactive: -0.962%
CCOn1c(=O)c[n+]([O-])c2ccccc21 | active: 10 µM | 
CCCCN1CCc2c([nH]c3c(C)cccc23)C1=O |  | inactive: 5.74%
N#Cc1c(-c2ccccc2)no[n+]1[O-] |  | inactive: 0%
CC12C(=O)N(CCC(=O)O)C(=O)C1C1C=CC2C1 (configuration not stated) |  | inactive: -4.76%
O=c1c[n+]([O-])c2ccccc2n1OCc1c(F)cccc1F | active: 12.6 µM | 
Cn1cccc1/C=C1\CCC/C(=C\c2cccn2C)C1=O | active: 12.6 µM | 
CC(=O)[C@]1(O)CCC2C3CC(C)C4=CC(=O)C=CC4(C)[C@@]3(F)C(O)C[C@]21C (some centres not stated) |  | inactive: -0.5%
CCCCCCCCCCCCCCC[C@@H](O)[C@@H](N)CO | inactive | 
O=c1c(N2CCOCC2)nsnc1N1CCOCC1 |  | inactive: -9.31%
CC1=C(/C=C/C(C)=C/C=C/C(C)=C/C(=O)Nc2ccc(O)cc2)C(C)(C)CCC1 | inactive | 
COc1ccc(C(=O)Nc2nc(C)c(C(=O)N(C)C)s2)cc1OC |  | inactive: -3.17%
CCN(CC)c1ccc(/C=C(\C#N)c2nc(-c3cccs3)c(NC(C)=O)s2)cc1 | active: 1.58 µM | 
CCN(CC)S(=O)(=O)c1ccc2c(c1)c(=O)c(C(=O)NCCOC)cn2C |  | inactive: -1.59%
CN(C)Cc1nc2c([nH]1)c(=O)n(C)c(=O)n2C |  | inactive: 0%
CN(C)c1ccc(/C=C(\C#N)C(=O)Nc2nc3c(s2)CCN(Cc2ccccc2)C3)cc1 | active: 7.94 µM | 
Oc1ccc(NCc2ccccc2OCc2ccccc2F)cc1 |  | inactive: 2.03%
Cc1cc(=O)oc2cc3c(cc12)OCCO3 |  | inactive: -8.81%
COc1ccccc1C(CCN(Cc1cccs1)C(C)=O)c1ccco1 (configuration not stated) |  | inactive: 4.43%
COc1ccc(NC(=O)/C(C#N)=C\c2ccc(N3CCOCC3)o2)cc1 | active: 15.8 µM | 
O=C1Nc2c(c(=O)[nH]c(=O)n2-c2ccccc2)C1(Nc1ncccn1)C(F)(F)F (configuration not stated) |  | inactive: 4.12%
CCC1CCCCN1C(=O)CSc1nc2c(cnn2-c2ccc(C)cc2)c(=O)[nH]1 (configuration not stated) |  | inactive: 1.28%
COC(=O)[C@H]1[C@H]2C[C@@H]3c4[nH]c5cc(OC)ccc5c4CCN3C[C@H]2C[C@@H](OC(=O)c2cc(OC)c(OC)c(OC)c2)[C@@H]1OC | active: 22.4 µM | 
CC(C)(C)Nc1nc(OCC(F)(F)F)nc(OCC(F)(F)F)n1 |  | inactive: -4.76%

SMILES | Potency | GFP activation
COc1ccc(-c2cc(C(F)(F)F)c(C#N)c(SCC(=O)Nc3ccccc3C#N)n2)cc1 | active: 7.94 µM | 
CCCCOc1ccc(C(=O)NCc2ccccn2)cc1 |  | inactive: 0.207%
O=C(N/N=C/C=C\c1ccco1)c1cccs1 |  | inactive: -0.935%
COc1cc2c(-c3ccccc3O)nc3c(c(C)nn3-c3ccccc3)c2cc1OC |  | inactive: 8.49%
Cc1ccccc1NC(=O)/C=C/c1ccc([N+](=O)[O-])s1 | active: 3.55 µM | 
COCCN=C1OC(=O)N2C(=O)C3=C4C(C[C@H]5C(=O)N(c6ccccc6)C(=O)[C@H]5[C@H]4[C@@]12Cc1ccccc1)[C@H]1C(=O)N(c2ccccc2)C(=O)[C@H]1[C@H]3C (some centres not stated) |  | inactive: 0.36%
COc1ccc(CN(CCN(C)C)c2ccccn2)cc1 | inactive | 
CCOC(=O)C1=C(C)NC(=O)NC1c1ccc(OC)c(CN2CCOCC2)c1 (configuration not stated) |  | inactive: -16.9%
COc1ccc(-c2nc(C#N)c(NCCCN(C)C)o2)cc1OC |  | inactive: -19%
CCN(CC)c1ccc2c(Cl)c(Br)c(=O)oc2c1 | active: 11.2 µM | 
CCCCCOC(=O)CSc1nnc(-c2cc(OC)c(OC)c(OC)c2)o1 |  | inactive: -3.17%
Cc1ccc(NC(=O)c2sc3nc(-c4ccncc4)ccc3c2N)cc1 | active: 22.4 µM | 
CCCn1nc(Oc2nc(SC)nc(N(C)C)n2)ccc1=O |  | inactive: -6.15%
O=[N+]([O-])/C(C(Cl)=C(Cl)Cl)=C(\Sc1ccccc1)N1CCCCC1 |  | inactive: -3.86%
Cc1ccc2nc3sc(C(=O)NCc4ccco4)c(N)c3cc2c1 | active: 15.8 µM | 
O=[N+]([O-])c1ccc(/C=N/NC(=S)Nc2ccc(Cl)cc2Cl)s1 | active: 22.4 µM | 
Cc1cccc(NC(=O)c2ccc(NCCc3ccccc3)c([N+](=O)[O-])c2)c1 | active: 17.8 µM | 
COc1ccccc1C(=O)N1CCN=C1c1ccccc1 |  | inactive: -0.877%
O=C(Nc1cccc(C(F)(F)F)c1)/C(=C/c1ccco1)NC(=O)c1cccs1 |  | inactive: 0.862%
Cc1ccccc1NC(=O)Cn1c(=O)n(Cc2ccccc2)c(=O)c2c(C)c(C)sc21 |  | inactive: 7.96%
O=c1c(O)c(-c2cc(O)c(O)c(O)c2)oc2cc(O)cc(O)c12 | inactive | 
Cc1cc(NC(=O)Nc2cccc3ccccc23)no1 |  | inactive: -1.08%
CCCCCCCCCCCCC/C=C\[C@@H](O)[C@H](CO)NC(C)=O |  | inactive: 0.424%
Oc1c(I)cc(I)c2cccnc12 |  | inactive: -0.962%
Cc1n[nH]c(=O)nc1NCCN(C)C |  | inactive: -3.37%
O=C1S/C(=C\c2ccc(N3CCOCC3)o2)C(=O)N1c1ccccc1 | active: 14.1 µM | 

SMILES | Potency | GFP activation
COc1ccc(NC(=O)CSc2nnc(-c3ccccc3Cl)n2Cc2ccco2)c(OC)c1 |  | inactive: 2.83%
Cc1cc2c(N=O)c(NO)ccc2[nH]1 | active: 15.8 µM | 
COc1cc(CN(C)CCc2ccccn2)cc(OC)c1OC |  | inactive: -16.9%
CC(C)N(C=O)C1(C(=O)NC2CCCCC2)CCCCC1 |  | inactive: -17.5%
c1ccc(Cn2ncc3c(NCc4ccco4)ncnc32)cc1 |  | inactive: -11.1%
COc1ccc(CCNC(=O)c2nnc(Cc3ccc(Cl)cc3)o2)cc1OC |  | inactive: 2.19%
O=C(NC1CCCCC1)N1CCC(c2nc3ccc(Cl)cc3[nH]2)CC1 |  | inactive: 7.3%
CCC(OC(=O)c1cccs1)C(=O)NCc1ccco1 (configuration not stated) |  | inactive: -4.05%
CCOC(=O)/C(C#N)=C/c1ccc(OC)c(OC)c1 |  | inactive: -0.0795%
COc1cc(C)nc(Nc2nc(C)c(C(C)=O)s2)n1 |  | inactive: -6.8%
CCN1CCc2c(C#N)c(N3CCCCC3)nc(N3CCOCC3)c2C1 |  | inactive: -7.69%
CCc1ccccc1NC(=O)CN1C(=O)C2CCCN2c2ncc(Cl)cc21 (configuration not stated) |  | inactive: -0.971%
CC(=O)n1cc([C@H]2C=C(C(=O)NCc3ccccc3)O[C@@H](OCc3ccc(CO)cc3)C2)c2ccccc21 |  | inactive: -2.04%
Cc1cc(C)c2cc(CN(Cc3ccco3)C(=O)NCc3ccccc3)c(=O)[nH]c2c1 |  | inactive: -1.75%
COc1ccc(OC)c(NS(=O)(=O)c2ccc(Br)s2)c1 |  | inactive: 1.77%
O=C(NCCC1=CCCCC1)C1CCN(C(=O)Nc2ccccc2)CC1 |  | inactive: -14.3%
CCO/C=C1\C(=O)N(CC)c2ccccc21 |  | inactive: -1.04%
O=C(NCC(=O)N1CCCC1C(=O)O)OC1CCCCC1 (configuration not stated) |  | inactive: 1.28%
O=S(=O)(c1cccc2nsnc12)N1CCN(C/C=C/c2ccccc2)CC1 |  | inactive: -0.223%
CCCCn1c(SCC(=O)Nc2ccc(OC)cc2)nc2ccc(N3CCOCC3)cc2c1=O |  | inactive: -12.7%
CCOC(=O)N1CCC(NC(=O)CCC(=O)N2CC(C)Oc3ccc(Cl)cc32)CC1 (configuration not stated) |  | inactive: -12.7%
CCCn1c(C(C)NC(C)=O)nc2ccccc21 (configuration not stated) |  | inactive: 0%
O=S(=O)(NCC(Nc1ccc(Cl)cc1)c1ccccc1)c1ccccc1 (configuration not stated) |  | inactive: -0.943%
O=C1C=C(Nc2ccc(Cl)cc2)C(=O)N1c1ccc(Cl)cc1 | active: 10 µM | 
C=CCn1c(O)c(N=NC(=O)CNC(=O)/C=C/c2ccco2)c2ccccc21 |  | inactive: 0%
N=C(N)S/C=C\C(=O)O |  | inactive: 8.42%

SMILES | Potency | GFP activation
CCOC(=O)c1nn(-c2ccc(Cl)cc2Cl)c(=N)c(C#N)c1C | active: 11.2 µM | 
OC[C@H]1O[C@@H](n2cnc3c(NCc4ccco4)ncnc32)[C@H](O)[C@@H]1O | inactive | 
CCC(=NCc1ccccc1)C1=C(O)C(C(=O)OC)C(C)(C)CC1=O (configuration not stated) |  | inactive: -11.9%
COc1ccccc1OC(C)C(=O)Nc1ccc(-c2nc3ccccc3s2)cc1 (configuration not stated) | active: 35.5 µM | 
CCc1ccc(NC(=O)CSc2nnc(CC)c(CC)n2)cc1 |  | inactive: -3.39%
Cc1nc(N)c(C#N)c(-c2ccccc2)c1C |  | inactive: -7.23%
CCC(C)NC(=O)c1c(N)n(/N=C/c2ccccn2)c2nc3ccccc3nc12 (configuration not stated) |  | inactive: -0.243%
Cc1onc(-c2ccccc2)c1C(=O)N1CCOCC1 |  | inactive: -0.877%
CSc1ccccc1NC(=O)CN(c1ccccc1)S(=O)(=O)N(C)C |  | inactive: 2.56%
CN1CCc2c(sc(NC(=O)CSc3ccc(F)cc3)c2-c2nc3ccccc3s2)C1 | active: 3.16 µM | 
O=C(CCN1C(=O)/C(=C/C=C/c2ccccc2)SC1=S)Nc1ccccn1 | active: 14.1 µM | 
CCC1=C2CC[C@H]3C(=O)N(c4ccccc4)C(=O)[C@H]3[C@H]2[C@@]2(C)C(=NCc3ccccc3)OC(=O)N2C1=O |  | inactive: 0.524%
CC(=O)[C@H](CC(C)C)NC(=O)[C@@H](CC(C)C)NC(=O)[C@H](CC(C)C)NC(=O)OCc1ccccc1 | active: 5.01 µM | 
Cc1occc1C(=O)N/N=C/C(Br)=C\c1ccccc1 |  | inactive: 4.11%
CCCCCCCCCCCCCCC[C@H](O)[C@@H](N)CO | inactive | 
COC1/C=C/OC2(C)Oc3c(C)c(O)c4c(O)c(c(/C=N/N5CCN(C)CC5)c(O)c4c3C2=O)NC(=O)/C(C)=C/C=C/C(C)C(O)C(C)C(O)C(C)C(OC(C)=O)C1C (configuration not stated) |  | inactive: 3.12%
CC(=O)CC1OC(=O)C(Br)=C1NCc1ccccc1 (configuration not stated) | active: 7.94 µM | 
CCOC(=O)C(C)Sc1nc2c(c(=O)[nH]c(=O)n2C)n1Cc1ccc(Cl)cc1 (configuration not stated) |  | inactive: 0%
Cc1cc(=O)oc2c1c(C)nn2-c1ccc(C(=O)OC(C)C)cc1 |  | inactive: 0%
CC(=O)Nc1ccc(NS(=O)(=O)c2cn(C)c(=O)n(C)c2=O)cc1 |  | inactive: 0.901%
Cc1ccc2nc(-c3ccccn3)cc(C(=O)Nc3ccc4c(c3)OCO4)c2c1 | active: 15.8 µM | 
C/C=C(/C)C(=O)OC1Cc2c(ccc3ccc(=O)oc23)OC1(C)C (configuration not stated) |  | inactive: 1.49%
CCN(CC)c1ccc2cc(-c3nc(-c4ccccc4)no3)c(=O)oc2c1 | active: 14.1 µM | 
CN(CC(=O)NC1CCCCC1)S(=O)(=O)c1ccc(Cl)cc1 |  | inactive: 0%
